Whole data set: some 16,000 sequences, median “Z-score” near -0.37, cut for the highest 2% near 3.1. Some of the results follow.
system: RBM10 RRM1-ZnF-RRM2 (GST-tagged construct); assay: RNAcompete 7-mer binding Z-score; higher = stronger binding preference
Summary of the method: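 Bound RNA was identified by microarray hybridisation after GST-tagged RBM10 constructs (20 pmol) had been mixed with 1.5 nmol of a designed pool of 241 399 RNAs up to 41 nt, transcribed from microarray-derived DNA templates. Binding ran for 30 min at 4°C in 1 ml Hepes pH 7.8 buffer with KCl, NaCl, glycerol, DTT, BSA and glutathione Sepharose beads, with four 2-min washes at 4°C afterwards. For every heptamer motif, a one-sided Z-score for enrichment was computed across the probes that contained it.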

Going from GCCGUAU to GCCACGA, the “RNAcompete 7-mer binding Z-score” value rises from -0.446 to -0.366.

First: UUAUAAA
Second: GUAAUUC
The “RNAcompete 7-mer binding Z-score” value of the first is lower: -0.559 for the first, -0.238 for the second.

Going from CAGCAAA to ACGUAAG, the “RNAcompete 7-mer binding Z-score” value rises from -0.205 to 0.232.

First: GAUCUAG
Second: CUACAGU
The “RNAcompete 7-mer binding Z-score” value of the first is higher: -0.42 for the first, -0.781 for the second.

First: UGACCGA
Second: CAUGUCG
The “RNAcompete 7-mer binding Z-score” value of the first is higher: -0.384 for the first, -0.508 for the second.

Compared with CAGAUAU, ACUUUAC is lower in “RNAcompete 7-mer binding Z-score” value: -0.406 for the first, -0.799 for the second.

Going from CAUGGAA to GCUUGGG, the “RNAcompete 7-mer binding Z-score” value falls from 1.36 to 1.24.

First: CAACACU
Second: GAGCCAU
The “RNAcompete 7-mer binding Z-score” value of the first is lower: -0.69 for the first, -0.446 for the second.

First: UUCGGGC
Second: CUGGUGA
The “RNAcompete 7-mer binding Z-score” value of the first is lower: 0.075 for the first, 0.425 for the second.

First: GACCUUA
Second: UCGAAUG
The “RNAcompete 7-mer binding Z-score” value of the first is lower: -1.09 for the first, -0.198 for the second.

Compared with UAUUGAA, GAUUUAG is higher in “RNAcompete 7-mer binding Z-score” value: -0.293 for the first, 0.385 for the second.

Going from AGAAUUU to CGGUGCU, the “RNAcompete 7-mer binding Z-score” value rises from -0.428 to 0.286.

Compared with GUCAGCU, GUGCUUC is higher in “RNAcompete 7-mer binding Z-score” value: -0.49 for the first, -0.486 for the second.

Compared with AUCUUGC, GGUGGCA is higher in “RNAcompete 7-mer binding Z-score” value: -1.02 for the first, 2.34 for the second.

First: UGAAGCG
Second: AGGGACG
The “RNAcompete 7-mer binding Z-score” value of the first is lower: 0.581 for the first, 2.37 for the second.

Going from AUAUCUU to CCGAGUU, the “RNAcompete 7-mer binding Z-score” value falls from -0.661 to -0.788.

First: UAGGAGU
Second: GGGCAUA
The “RNAcompete 7-mer binding Z-score” value of the first is higher: 2.42 for the first, 1.8 for the second.

Going from AGCGAUU to GUCCCCA, the “RNAcompete 7-mer binding Z-score” value rises from -0.384 to -0.347.

Going from CGUGUCU to AAGCCUC, the “RNAcompete 7-mer binding Z-score” value falls from -0.639 to -0.861.

First: UCUUGAU
Second: CCGGAAU
The “RNAcompete 7-mer binding Z-score” value of the first is lower: -0.77 for the first, -0.0707 for the second.

First: UUUUAGG
Second: GGCGAUA
The “RNAcompete 7-mer binding Z-score” value of the first is lower: -0.067 for the first, 0.873 for the second.

First: ACGCUCG
Second: AUCUAUG
The “RNAcompete 7-mer binding Z-score” value of the first is lower: -0.65 for the first, -0.584 for the second.

Compared with ACCAUAA, UAGACUG is higher in “RNAcompete 7-mer binding Z-score” value: -0.533 for the first, -0.264 for the second.

Compared with UCUGCAC, ACCGGAG is higher in “RNAcompete 7-mer binding Z-score” value: -0.708 for the first, 0.683 for the second.

Going from CGAGGUG to ACGAACG, the “RNAcompete 7-mer binding Z-score” value falls from 2.14 to 0.0058.

Compared with AAUAGGA, CAACUAA is lower in “RNAcompete 7-mer binding Z-score” value: 1.57 for the first, -0.482 for the second.

First: GCCCGCU
Second: AUAUGGG
The “RNAcompete 7-mer binding Z-score” value of the first is lower: -0.712 for the first, 3.08 for the second.

Compared with UUGGACC, AACGGUU is higher in “RNAcompete 7-mer binding Z-score” value: -0.0452 for the first, 0.982 for the second.

Compared with UUACGCG, UGCGCUA is lower in “RNAcompete 7-mer binding Z-score” value: -0.395 for the first, -0.57 for the second.

Going from CCUUGAG to GAAUUUU, the “RNAcompete 7-mer binding Z-score” value rises from -0.697 to -0.573.

First: AUGACUC
Second: GGCUUCU
The “RNAcompete 7-mer binding Z-score” value of the first is higher: -0.592 for the first, -0.679 for the second.

First: UCGAAGU
Second: AAAGAAG
The “RNAcompete 7-mer binding Z-score” value of the first is lower: 0.00216 for the first, 1.18 for the second.

Going from AGUGACG to AACCCUU, the “RNAcompete 7-mer binding Z-score” value falls from 1.3 to -1.03.

First: ACGCGGC
Second: GCAAAGG
The “RNAcompete 7-mer binding Z-score” value of the first is lower: -0.0634 for the first, 2.18 for the second.

First: GCGCCGU
Second: CGCAUAG
The “RNAcompete 7-mer binding Z-score” value of the first is lower: -0.318 for the first, -0.122 for the second.

Going from UAAUAGC to UUGGUUC, the “RNAcompete 7-mer binding Z-score” value rises from -0.581 to -0.417.

First: ACCCCGA
Second: CUCAGUC
The “RNAcompete 7-mer binding Z-score” value of the first is higher: -0.464 for the first, -0.715 for the second.

First: GGGAUUC
Second: UCGAGGC
The “RNAcompete 7-mer binding Z-score” value of the first is higher: 1.24 for the first, 0.355 for the second.

Compared with GGCUACA, AUCAUGU is lower in “RNAcompete 7-mer binding Z-score” value: 0.0167 for the first, -0.471 for the second.

Compared with UAAACGG, CGUCCGA is lower in “RNAcompete 7-mer binding Z-score” value: 0.869 for the first, -0.832 for the second.

Compared with UUCUUAA, GAGUUAG is higher in “RNAcompete 7-mer binding Z-score” value: -0.744 for the first, 1.07 for the second.

Compared with UUUACUC, CACCAUU is higher in “RNAcompete 7-mer binding Z-score” value: -0.752 for the first, -0.741 for the second.

Going from GGGGUGG to UCGCUGA, the “RNAcompete 7-mer binding Z-score” value falls from 4.09 to -0.519.

First: ACGUGCA
Second: UAUUGCC
The “RNAcompete 7-mer binding Z-score” value of the first is higher: 0.0823 for the first, -0.803 for the second.

Going from AUGGUCG to AGGAUGA, the “RNAcompete 7-mer binding Z-score” value rises from 1.07 to 1.57.

Compared with UAGACCG, CAUAGGU is higher in “RNAcompete 7-mer binding Z-score” value: -0.344 for the first, 1.15 for the second.

First: CCGCGUG
Second: CCCGAGC
The “RNAcompete 7-mer binding Z-score” value of the first is higher: -0.0743 for the first, -0.675 for the second.

First: CAACGGG
Second: UAGCGUU
The “RNAcompete 7-mer binding Z-score” value of the first is higher: 2.59 for the first, -0.384 for the second.

First: GAUAAUC
Second: AUGGGUC
The “RNAcompete 7-mer binding Z-score” value of the first is lower: -0.388 for the first, 2.15 for the second.

First: AGACCGA
Second: AGGAAUA
The “RNAcompete 7-mer binding Z-score” value of the first is lower: -0.839 for the first, 0.978 for the second.

Going from GAGUAUG to UAUCUCA, the “RNAcompete 7-mer binding Z-score” value falls from 1.15 to -0.704.

Going from UAGAUGU to GCUGCUC, the “RNAcompete 7-mer binding Z-score” value falls from 0.0641 to -0.566.

Compared with GAUUGAG, GUACUCA is lower in “RNAcompete 7-mer binding Z-score” value: 1.36 for the first, -0.46 for the second.

Going from ACUGGUG to CCGACGA, the “RNAcompete 7-mer binding Z-score” value falls from 0.865 to -0.5.

First: UCGUUCG
Second: CCACAAC
The “RNAcompete 7-mer binding Z-score” value of the first is higher: -0.449 for the first, -0.661 for the second.

Going from UGAGCGC to AUAAAUC, the “RNAcompete 7-mer binding Z-score” value falls from -0.154 to -0.439.

Compared with AACCGCU, CAUUUUC is lower in “RNAcompete 7-mer binding Z-score” value: -0.744 for the first, -0.959 for the second.

First: UAGCGGA
Second: UGGUAAU
The “RNAcompete 7-mer binding Z-score” value of the first is higher: 1.01 for the first, 0.563 for the second.

Going from AGUUGAC to UGGGUUU, the “RNAcompete 7-mer binding Z-score” value rises from -0.0598 to 1.95.

Going from CGGUAGC to UAGUCAU, the “RNAcompete 7-mer binding Z-score” value falls from 0.119 to -0.442.

Going from UUGUAAA to UCUUCCA, the “RNAcompete 7-mer binding Z-score” value falls from -0.286 to -0.664.

Going from GCGCGGA to CUAGCCA, the “RNAcompete 7-mer binding Z-score” value falls from 0.945 to -0.748.

Going from UAAGAGU to ACCGCUC, the “RNAcompete 7-mer binding Z-score” value falls from 0.439 to -0.817.

Compared with GAUUGCC, AAUCCUG is lower in “RNAcompete 7-mer binding Z-score” value: -0.672 for the first, -0.861 for the second.

Compared with UGCUCAG, GUUUGUG is higher in “RNAcompete 7-mer binding Z-score” value: -0.453 for the first, 0.286 for the second.

Going from CGACUAG to AUAGCCA, the “RNAcompete 7-mer binding Z-score” value falls from 0.122 to -0.337.

Going from GGGGCUU to GGUAGUG, the “RNAcompete 7-mer binding Z-score” value rises from 0.953 to 2.43.

Going from GUAGGCA to ACCGAUA, the “RNAcompete 7-mer binding Z-score” value falls from 2.19 to -0.424.

Compared with AGACACA, CGAUUGC is lower in “RNAcompete 7-mer binding Z-score” value: -0.311 for the first, -0.748 for the second.

Going from ACAGACU to GAACCGG, the “RNAcompete 7-mer binding Z-score” value rises from -0.358 to 0.865.

Compared with CAAGCCG, AUGGCGC is higher in “RNAcompete 7-mer binding Z-score” value: -0.613 for the first, 0.538 for the second.

Compared with CUAUUUG, CGCUCCU is lower in “RNAcompete 7-mer binding Z-score” value: -0.606 for the first, -0.624 for the second.

First: CCCCGGU
Second: CACUAAC
The “RNAcompete 7-mer binding Z-score” value of the first is higher: -0.289 for the first, -0.701 for the second.

Going from GAGGCGC to AAAGUUA, the “RNAcompete 7-mer binding Z-score” value falls from 1.05 to -0.0707.

Compared with GAUAACU, CUUACUA is lower in “RNAcompete 7-mer binding Z-score” value: -0.351 for the first, -0.792 for the second.

Going from AAUGCGA to CUCCCCU, the “RNAcompete 7-mer binding Z-score” value falls from 0.286 to -0.57.

Going from GUGGUUC to CUAAACA, the “RNAcompete 7-mer binding Z-score” value falls from 0.716 to -0.737.

Going from CGCAGUC to GAGGGCA, the “RNAcompete 7-mer binding Z-score” value rises from -0.559 to 1.99.

Compared with GUAUGGC, CACUUAA is lower in “RNAcompete 7-mer binding Z-score” value: 1 for the first, -0.967 for the second.

Going from GGGAGCU to GCGGGUA, the “RNAcompete 7-mer binding Z-score” value rises from 1.71 to 2.5.

Going from GCCUUAG to UACCAUC, the “RNAcompete 7-mer binding Z-score” value falls from -0.504 to -0.708.

Going from AUGCUAG to AAUCUCU, the “RNAcompete 7-mer binding Z-score” value falls from -0.289 to -0.843.

First: AGAUCUG
Second: AAUGUGC
The “RNAcompete 7-mer binding Z-score” value of the first is lower: -0.475 for the first, -0.129 for the second.

Going from GCCGCGG to UAUUGCG, the “RNAcompete 7-mer binding Z-score” value falls from 0.137 to -0.278.

Going from CGCGUGG to ACUCGCG, the “RNAcompete 7-mer binding Z-score” value falls from 1.41 to -0.726.

First: CGUUCCG
Second: GACUACA
The “RNAcompete 7-mer binding Z-score” value of the first is higher: -0.624 for the first, -0.679 for the second.

Compared with CAGAACA, UCCGGCG is lower in “RNAcompete 7-mer binding Z-score” value: -0.275 for the first, -0.373 for the second.

Going from CAAGAAG to GUAGACA, the “RNAcompete 7-mer binding Z-score” value rises from 0.556 to 1.12.

First: GUGCAGU
Second: UCACAGG
The “RNAcompete 7-mer binding Z-score” value of the first is lower: 0.432 for the first, 0.621 for the second.

Compared with CAGUAGU, CUUCCUA is lower in “RNAcompete 7-mer binding Z-score” value: -0.00148 for the first, -0.868 for the second.

Compared with UCGUCGG, CCAAAGA is lower in “RNAcompete 7-mer binding Z-score” value: -0.154 for the first, -0.347 for the second.

For UGUCCGA, the “RNAcompete 7-mer binding Z-score” value was -0.81.

Source: the supplement of paper PMC5499739
